PubChem BioAssay AID1346428 (National Center for Advancing Translational Sciences (NCATS), 2018)
Hit rate of the full screen: of about 48,000 compounds, about 1,200 (2.5%) were called active. About 2% were inconclusive and are not listed.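 The calls were made as follows: active = activation of at least 60% and not above a set upper limit (about 1 call in 100 departs from these limits); inconclusive = activation of 40% to 60%, or above that upper limit; inactive = activation under 40%.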 The list shows a part of the results.
Also: 0% is about no effect.

The compounds below were run against Probable G-protein coupled receptor 32 (Homo sapiens) (UniProt O75388) (assay: qHTS for Agonists of Human Resolvin D1 Receptor DRV1). Details: CHO-K1 GPR32 beta-arrestin PathHunter luminescence, 90 min; at 76.9 µM; hits give high values; zero percent set by DMSO-only wells.
Sequence of UniProt O75388 (O75388 whole entry, looked up): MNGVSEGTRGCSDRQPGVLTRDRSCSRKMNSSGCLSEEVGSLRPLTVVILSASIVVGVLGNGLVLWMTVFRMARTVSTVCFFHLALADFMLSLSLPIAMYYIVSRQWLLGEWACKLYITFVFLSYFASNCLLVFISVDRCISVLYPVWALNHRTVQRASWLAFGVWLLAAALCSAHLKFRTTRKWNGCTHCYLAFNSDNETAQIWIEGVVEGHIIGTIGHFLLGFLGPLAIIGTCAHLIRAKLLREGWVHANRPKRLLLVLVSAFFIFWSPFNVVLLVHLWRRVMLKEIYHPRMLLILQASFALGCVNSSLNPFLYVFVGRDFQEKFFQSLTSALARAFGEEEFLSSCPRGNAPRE
In short: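 CHO-K1 cells stably expressing ProLink-tagged GPR32 and Enzyme Activator-tagged beta-arrestin were seeded at 2,500 cells/well overnight, exposed to compounds for 90 min at 37 °C, then read by beta-Gal complementation chemiluminescence after 1 h detection reagent.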
For `Cc1ccc(-c2nonc2NC(=O)c2ccco2)cc1C`, the activation was inactive: 29.5%.
`Cc1oc(C)c2c(=O)cc(-c3ccc4c(c3)OCO4)cc(OC(=O)c3ccc(Cl)cc3)c12` was tested, and the activation was inactive: -9.79%.
With `Cc1ccc(-c2nn(CC(=O)Nc3cccc(C(F)(F)F)c3)c(=O)c3ccccc23)cc1` the activation was inactive: -4.12%.
`Cc1ccc(CNC(=O)c2ccc3c(c2)N(Cc2cccc(C)c2)C(=O)CS3)cc1` was tested, and the activation was inactive: 17.2%.
For `COc1ccccc1Cn1c(CNS(=O)(=O)c2cccc([N+](=O)[O-])c2)nc2cccnc21`, the activation was inactive: -16.2%.
With `NC(CSCC(=O)O)C(=O)O` (stereo unspecified) the activation was inactive: -7.75%.
`CCC(Sc1nc2ccccc2c2nc(CCc3c(C)n[nH]c3C)nn12)C(=O)Nc1ccccc1F` (stereo unspecified) was tested, and the activation was inactive: -10.3%.
`Cc1cccc(C)c1NC(=O)CSCc1cnn(-c2ccccc2)c1-n1cccc1` was tested, and the activation was inactive: -9.97%.
For `Cc1ccccc1C(=O)Nc1ccc(C(=O)N2CCCC(N(C)C)c3ccccc32)cc1` (stereo unspecified), the activation was inactive: 3.34%.
`COc1ccc(C)cc1NC(=O)CCn1nc(C)cc1C` was tested, and the activation was inactive: -25.7%.
`CCN(CC)C(=O)C1=C(C)Nc2nc3ccccc3n2C1c1cccc(Cl)c1` (stereo unspecified) was tested, and the activation was inactive: -4.23%.
With `Cc1ccc(NC(=O)Cn2c(=O)c(CNc3ccccc3)cc3cc4c(cc32)OCCO4)cc1` the activation was inactive: -61.3%.
For `COC(=O)c1ccc(NC(=O)CSc2n[nH]c(CC(C)C)n2)cc1`, the activation was inactive: 14.8%.
`COc1ccc(CNC(=O)c2cc3cccc(OC)c3oc2=O)cc1` was tested, and the activation was inactive: -4.85%.
With `COc1ccc(Cl)cc1NC(=O)N1CC(=O)Nc2sc3c(c2C1c1ccccc1)CCCC3` (stereo unspecified) the activation was inactive: -35.3%.
In the case of `CCCc1nccn1S(=O)(=O)c1cc(Br)ccc1OC`, the activation is reported as inactive: -8.16%.
`Cc1ccc(NC(=O)Cn2c(-c3cncs3)nc3ccccc32)cc1Br` was tested, and the activation was inactive: -10%.
For `CCN(CC)C(=O)CSc1nc2ccccc2c(=O)n1Cc1ccco1`, the activation was inactive: 8.69%.
For `Cc1nn(CCCC(=O)Nc2cccc(F)c2)c(=O)c2c1sc1ccccc12`, the activation was inactive: -10.1%.
For `COc1cc2c(C(=O)N(C)c3cc(Cl)ccc3OC)cn(CC(C)C)c(=O)c2cc1OC`, the activation was inactive: 0.723%.
`CCN(C(=O)Cn1c(=O)n(CC2CCC(C(=O)NC)CC2)c(=O)c2sccc21)c1ccccc1` (stereo unspecified) was tested, and the activation was inactive: -5.02%.
With `COc1ccc(NC(=O)CN2C(=O)CCc3cc(S(=O)(=O)N4CCOCC4)ccc32)cc1Cl` the activation was inactive: 19.7%.
With `O=C(Nc1ccccc1)c1cn(-c2ccccc2)nc1-c1ccccc1` the activation was inactive: -18.5%.
With `COc1ccccc1NC(=O)CSC1=Nc2ccccc2N=C(c2ccc(F)cc2)C1` the activation was inactive: -16.6%.
`Cc1cccc(-n2c3nc(=O)[nH]c(=O)c-3cc3c(C)nn(-c4ccccc4)c32)c1C` was tested, and the activation was inactive: -0.56%.
`Cc1ccc(NC(=O)Cc2coc3c(C)c(C)ccc23)cc1Cl` was tested, and the activation was inactive: 27%.
In the case of `Cc1ccc(NC(=O)c2ccc3[nH]c(C)cc(=O)c3c2)c(C)c1`, the activation is reported as inactive: -5.07%.
In the case of `CN(Cc1ccc(C(C)(C)C)cc1)Cc1cccc2ccccc12`, the activation is reported as active: 68.1%.
`Cc1ccc(CCNC(=O)c2cc(-c3ccc(Cl)cc3)n[nH]2)cc1` was tested, and the activation was inactive: -1.89%.
For `Cc1ccc(Nc2cc(C(=O)NCc3cccs3)c3ccccc3n2)c(C)c1`, the activation was inactive: -8.13%.
`COc1ccccc1CN1CCN(C2CCN(C(=O)NC(C)C)CC2)C(=O)C1=O` was tested, and the activation was inactive: -6.51%.
With `COc1ccc(Nc2ncc3c(n2)CCN(C(=O)OC(C)(C)C)C3)cc1` the activation was inactive: 46.7%.
For `COc1cc2ccccc2cc1C(=O)Nc1ccc2oc(-c3ccccc3)nc2c1`, the activation was inactive: 5.34%.
For `CCOc1ccccc1C(=O)N(Cc1cccs1)c1ccc(Cl)cc1`, the activation was inactive: -0.748%.
For `CCc1ccc2c(c1)-c1ccccc1S(=O)(=O)N2CC(=O)N1CCC(C)CC1`, the activation was inactive: -38.7%.
For `NCCCCN`, the activation was inactive: -1.09%.
For `Cc1cc(O)c(-c2ccnc3cc(-c4ccccc4)nn23)cc1Cl`, the activation was active: 89.7%.
`Cc1ccccc1CNC(=O)CCC(=O)N1CC2CCCN2c2ccccc21` (stereo unspecified) was tested, and the activation was inactive: 12.5%.
For `COc1ccccc1C(=O)Nc1nc2nc(C)c(Cc3ccccc3)c(=O)n2[nH]1`, the activation was inactive: 1.29%.
`COc1ccccc1CNc1ncnc2c1c(-c1ccccc1)cn2-c1cccc(C)c1` was tested, and the activation was inactive: -40.4%.
For `CC(=O)c1ccc(NC(=O)Cn2ncc3c(C)n(Cc4ccc(F)cc4)c(C)c3c2=O)cc1`, the activation was inactive: -11.4%.
For `CC1CCN(S(=O)(=O)c2ccc3c(c2)N(CC(=O)N2CCN(c4ccccc4)CC2)C(=O)CO3)CC1`, the activation was inactive: -5.41%.
With `COc1cccc(Cn2c(CNS(=O)(=O)c3ccc4c(c3)CCCC4)nc3cccnc32)c1` the activation was inactive: -22.6%.
In the case of `O=C1C(=O)N(C2CCN(C(=O)c3ccc(Cl)cc3)CC2)CCN1Cc1ccc(F)cc1`, the activation is reported as inactive: 11.4%.
For `CCN(CC)CCCNC(=O)c1ccc2nc(N3CCCCC3)sc2c1`, the activation was inactive: -6.72%.
With `CCNC(=O)c1ccc2nc(CCc3ccccc3)oc2c1` the activation was inactive: -10.6%.
With `COc1ccc(CCNC(=O)c2cc(C)nc3c2c(C)nn3-c2ccc(C)cc2)cc1OC` the activation was inactive: -20%.
In the case of `Cc1cc(Nc2ccccc2C)nc(-n2nc(C)cc2C)n1`, the activation is reported as inactive: -17.6%.
With `O=C(CN1CCSc2ccccc21)NCc1ccccc1F` the activation was inactive: -7.94%.
With `CCOc1ccccc1C(=O)N(Cc1cc(OC)c(OC)c(OC)c1)C1CCS(=O)(=O)C1` (stereo unspecified) the activation was inactive: -5.24%.
In the case of `CCCN(C(=O)c1cn(C)c(=O)c2ccccc12)c1ccccc1C`, the activation is reported as inactive: 4.04%.
For `COc1ccc2nc(N(Cc3cccnc3)C(=O)C3COc4ccccc4O3)sc2c1` (stereo unspecified), the activation was inactive: -18.6%.
In the case of `CCOc1ccccc1CN1CCc2nc(N3CCN(c4ccccc4F)CC3)ncc2C1`, the activation is reported as inactive: -59.9%.
`CCCOc1ccc(CN(C(=O)c2cc(=O)c3ccc(C)cc3o2)C2CCS(=O)(=O)C2)cc1` (stereo unspecified) was tested, and the activation was inactive: -9.82%.
With `COc1ccc(N2CCN(S(=O)(=O)CCNC(=O)C3CC(=O)N(c4ccccc4)C3)CC2)cc1` (stereo unspecified) the activation was inactive: -5.63%.
For `CN(C)CC[C@@H](c1ccc(Br)cc1)c1ccccn1`, the activation was inactive: 4.91%.
